Reference: PubChem BioAssay AID485294 (National Center for Advancing Translational Sciences (NCATS), 2010)
Hit rate of the full screen: of about 370,000 compounds, about 150 (0.041%) were called active. Inconclusive results, whose numbers are uncertain, are shown with a selection of clear calls. The call rests on the fitted dose curve; in most records, active means well fitted inhibition curve with a large enough effect; inconclusive means small, poorly fitted or top-dose-only effect; inactive means flat fitted curve, though single readings scatter. Potencies of inconclusive entries are left out as doubtful fits.

biological target: Beta-lactamase (Escherichia coli (strain K12)) (UniProt P00811); assay: qHTS Inhibitors of AmpC Beta-Lactamase (assay with detergent); settings: AmpC hydrolysis of nitrocefin, absorbance 480 nm, 0.01% Triton; activity change, negative = inhibition: at 114 µM (top of the series); further: nearly all actives have a fitted effect of over 25% in size;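 on activity change, negative = inhibition: 0% = no-compound wells and -100% = no-enzyme wells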
UniProt P00811, sequence (P00811 whole entry, looked up): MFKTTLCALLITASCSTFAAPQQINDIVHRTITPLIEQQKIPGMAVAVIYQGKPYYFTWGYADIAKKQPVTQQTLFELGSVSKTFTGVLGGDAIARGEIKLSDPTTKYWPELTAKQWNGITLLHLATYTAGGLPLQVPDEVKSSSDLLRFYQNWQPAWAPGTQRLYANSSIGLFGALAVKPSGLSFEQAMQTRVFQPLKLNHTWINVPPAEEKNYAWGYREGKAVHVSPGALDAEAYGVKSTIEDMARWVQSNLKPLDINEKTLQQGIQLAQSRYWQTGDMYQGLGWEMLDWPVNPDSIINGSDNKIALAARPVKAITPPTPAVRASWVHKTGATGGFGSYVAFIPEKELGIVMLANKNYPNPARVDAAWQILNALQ
Procedure, shortened: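 AmpC (5.3 nM in the dispensed reagent) in 20 mM phosphate pH 7.0 with 0.01% (detergent screen) or 0.0001% Triton X-100 was preincubated with compounds for 15 min at room temperature. Nitrocefin was then added from an 800 uM solution, and hydrolysis was followed at 480 nm.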
Potency means the concentration at half of the fitted maximal effect; tags describe the fitted curve by direction and shape.

| SMILES | Potency | activity change, negative = inhibition |
| --- | --- | --- |
| Cc1cc(NC(=O)COc2ccccc2C#N)no1 | inconclusive [inhibitor, full curve, poor fit] | – |
| N#C/C(=C(/O)CCl)c1nc2c(s1)CCc1ccccc1-2 | – | inactive: -3.87% |
| COc1ccc(Nc2ncc3c(n2)CC(c2ccc(OC)cc2)CC3=O)cc1 (centres undefined) | inconclusive [inhibitor, partial curve] | – |
| O=C(CN1CCN(S(=O)(=O)c2ccc(F)c(Cl)c2)CC1)N1CCc2ccccc21 | inconclusive [inhibitor, full curve, poor fit] | – |
| COc1ccccc1CNCCc1ccc(F)cc1 | inconclusive [inhibitor, partial curve, poor fit] | – |
| CN(Cc1nnc(-c2ccc(F)cc2)o1)c1ccccc1 | – | inactive: 3.43% |
| CCOC(=O)C1(CCCc2ccccc2)CCN(Cc2cnc(C)s2)CC1 | – | inactive: 5.41% |
| COc1ccc(/C=C2\SC(=S)N(CCCC(=O)NNC(=O)c3ccccc3O)C2=O)cc1 | – | inactive: -2.74% |
| O=C(O)C1=NOC(CNC(=O)c2ccccc2Cl)C1 (centres undefined) | inconclusive [inhibitor, full curve, poor fit] | – |
| O=C(Nc1ccc(Cl)c(Cl)c1)c1ccc(Cn2c(=O)[nH]c3ccsc3c2=O)cc1 | inconclusive [inhibitor, partial curve, poor fit] | – |
| COc1ccc(NC(=O)CSC2=Nc3ccccc3C3=NC(CC(=O)NCc4ccc5c(c4)OCO5)C(=O)N23)cc1 (centres undefined) | – | inactive: 1.46% |
| Cc1cnc(NC(=O)C2CCC(C(C)(C)C)CC2)s1 (centres undefined) | inconclusive [inhibitor, single point] | – |
| O=C(c1cccc(Oc2ccccc2)c1)N1CCN(c2ccccn2)CC1 | inconclusive [inhibitor, partial curve, poor fit] | – |
| COc1ccc(OCC(=O)Nc2ccc(S(=O)(=O)N3CCCC3)cc2)cc1 | inconclusive [inhibitor, full curve, poor fit] | – |
| Cc1ccc(NC(=O)Cn2cnc3sc(C)c(S(=O)(=O)N4CCN(c5ncccn5)CC4)c3c2=O)cc1F | – | inactive: 15.9% |
| COC(=O)c1ccc(NC(=O)CC2C(=O)N(c3ccccc3)C(=O)N2Cc2ccco2)cc1 (centres undefined) | – | inactive: 4.29% |
| CCOc1ccc(NC(=O)CSc2nnc(Cn3cnc([N+](=O)[O-])n3)n2CC)cc1 | – | inactive: 3.25% |
| CCOc1ccc(S(=O)(=O)NCc2ccncc2)cc1NC(=O)c1ccccc1F | – | inactive: 1.12% |
| Cc1ccc(S(=O)(=O)NCC(=O)OCC(=O)c2cccs2)cc1 | – | inactive: -14.7% |
| O=C(/C=C/c1cccs1)NC(=S)Nc1ccccc1 | – | inactive: -4.11% |
| C=CCc1ccc(OCC(O)COCC)c(OC)c1 (centres undefined) | inconclusive [inhibitor, single point] | – |
| Cc1ccc(NC(=S)NCC(O)c2ccccc2)c(C)c1 (centres undefined) | inconclusive [inhibitor, full curve, poor fit] | – |
| COc1cccc(CNCCSc2nnnn2C)c1OCc1ccc(F)cc1 | – | inactive: -4.81% |

| SMILES | Potency | activity change, negative = inhibition |
| --- | --- | --- |
| COc1cccc2sc(=NC(=O)CCS(=O)(=O)c3ccc(C)cc3)n(C)c12 | inconclusive [inhibitor, full curve, poor fit] | – |
| COc1ccc(OCC(=O)N2CCN(C(C)C)CC2)cc1 | inconclusive [inhibitor, partial curve, poor fit] | – |
| CC1/C(=N/O)CC(c2ccccc2)N(C)C1c1ccccc1 (centres undefined) | inconclusive [inhibitor, full curve, poor fit] | – |
| O=C1Nc2ccccc2O/C1=C\c1ccccc1Br | inconclusive [inhibitor, partial curve] | – |
| COc1ccc(NC(=O)C2CCCN2S(=O)(=O)c2cccc3cccnc23)c(OC)c1 (centres undefined) | inconclusive [inhibitor, partial curve, poor fit] | – |
| Cc1[nH]nc2c1C(c1cccc(O)c1)C1=C(CC(C)(C)CC1=O)N2 (centres undefined) | inconclusive [inhibitor, partial curve, poor fit] | – |
| COc1cc(/C(C)=N/NC(=O)c2ccc(CSc3nncn3C)cc2)cc(OC)c1OC | – | inactive: -0.231% |
| CC(=O)c1sc(NC(=O)COc2ccc(C)c(C)c2)nc1C | inconclusive [inhibitor, partial curve] | – |
| CCOC(=O)Cn1c(=NC(=O)CSC(C)=O)sc2cc(F)ccc21 | inconclusive [inhibitor, full curve] | – |
| Cc1[nH]nc2c1C1(CCN(C(=O)OCc3ccccc3)CC1)C(C#N)=C(N)O2 | inconclusive [inhibitor, full curve, poor fit] | – |
| CCOC(=O)c1ccc(Oc2nc(SC)nc(N(C)C)n2)cc1 | inconclusive [inhibitor, single point] | – |
| COC(=O)C(O)(c1ccc(NC(=O)c2ccco2)c(OC)c1)C(F)(F)F (centres undefined) | inconclusive [inhibitor, full curve, poor fit] | – |
| COc1cc(NC(=O)c2ccccc2)c(C)cc1NC(=O)CC(CC(=O)O)c1ccccc1 (centres undefined) | – | inactive: -14.9% |
| O=C(CSc1nc2scc(-c3ccccc3)c2c(=O)[nH]1)NC1CCCCC1 | inconclusive [inhibitor, single point] | – |
| COc1cc(OC)cc(C(=O)NC(C(=O)Nc2ccc3c(c2)CCC3)C(C)C)c1 (centres undefined) | – | inactive: 6.98% |
| COc1cccc(-c2c(C(=O)N/N=C/c3ccncc3)nnn2-c2nonc2N)c1 | inconclusive [inhibitor, full curve, poor fit] | – |
| COc1ccc2c(c1)c(=O)oc1cc(OCC(=O)NCC3CCC(C(=O)O)CC3)ccc12 (centres undefined) | inconclusive [inhibitor, partial curve, poor fit] | – |
| COc1ccc(NC(=O)C(CC(=O)O)Cc2ccc(Br)cc2)cc1 (centres undefined) | inconclusive [inhibitor, single point] | – |
| CCOc1ccc2[nH]c(=O)c(CN(Cc3ccc(F)cc3)C(=O)N3CCCC3)cc2c1 | inconclusive [inhibitor, single point] | – |
| COc1ccc(NC(=O)c2cccc(N3C(=O)C4C5C=CC(C6CC56)C4C3=O)c2)c(OC)c1 (centres undefined) | – | inactive: 1.26% |
| NC(=O)c1ccccc1OCC(=O)Nc1cccnc1Cl | inconclusive [inhibitor, single point] | – |
| CN1CCCN(C(=O)CC2(CC(=O)O)CCCCC2)CC1 | inconclusive [inhibitor, partial curve] | – |
| CSCCC(NC(=O)c1cc(C)oc1C)C(=O)O (centres undefined) | – | inactive: -1.63% |

| SMILES | Potency | activity change, negative = inhibition |
| --- | --- | --- |
| CC1CC(CC(=O)NNc2nc(-c3ccccc3)cs2)C(=O)O1 (centres undefined) | – | inactive: -3.66% |
| Cc1cccc(C(=O)Nc2ccc(O)cc2)c1 | inconclusive [inhibitor, full curve, poor fit] | – |
| CC(=O)N1C(=O)/C(=C2\SC(=S)N(NC(=O)c3ccc(O)cc3)C2=O)c2ccccc21 | inconclusive [inhibitor, full curve, poor fit] | – |
| COc1ccc(C(=O)OC2CC3CCC(C2)[N+]3(C)[O-])cc1OC (centres undefined) | inconclusive [inhibitor, full curve, poor fit] | – |
| O=C(NCCN1CCOCC1)c1c(F)c(F)c(F)c(F)c1F | inconclusive [inhibitor, full curve, poor fit] | – |
| COc1ccc(-c2cn(CCO)c(CCN)n2)cc1 | inconclusive [inhibitor, single point] | – |
| NCCOc1ccccc1-c1ccccc1 | inconclusive [inhibitor, full curve, poor fit] | – |
| c1cc(CNCCc2ccc3c(c2)OCO3)ccn1 | inconclusive [inhibitor, full curve, poor fit] | – |
| Cc1ccc(C)c(-n2c3nc(=O)[nH]c(=O)c-3cc3cc([N+](=O)[O-])ccc32)c1 | – | inactive: 2.63% |
| CC1(C)C2CCC1(C)C(NCC(O)COc1ccc(C#N)cc1)C2 (centres undefined) | inconclusive [inhibitor, single point] | – |
| Cc1cc(Cl)nc(SCC(=O)c2ccccc2)n1 | – | inactive: 1.33% |
| Cc1cccc(N2C(=O)NC(=O)C3(Cc4cc(C)ccc4N(C)C3)C2=O)c1 (centres undefined) | inconclusive [inhibitor, full curve, poor fit] | – |
| CSc1cccc(NC(=O)CN2C(=O)COc3ccc(S(=O)(=O)N4CCC(C)CC4)cc32)c1 | – | inactive: 18% |
| CCOC(=O)C1Cn2c(nc3c(c2=O)C2(CCCC2)Cc2ccccc2-3)S1 (centres undefined) | inconclusive [inhibitor, full curve, poor fit] | – |
| CC1(C)CC(=O)C(C=N)=C(O)C1 | inconclusive [inhibitor, full curve, poor fit] | – |
| CCCCNC(=S)NNC(=O)c1csc(C(C)C)c1 | inconclusive [inhibitor, single point] | – |
| COc1ccccc1NC(=O)CSc1oc(-c2ccc(F)cc2)nc1S(=O)(=O)c1ccc(Br)cc1 | – | inactive: 6.18% |
| S=c1[nH]nc(-c2ccccc2)n1/N=C/C=C/c1ccco1 | – | inactive: -13% |
| CCOC(=O)/C(C#N)=C\c1cc(C)n(-c2ccccc2)c1C | inconclusive [inhibitor, partial curve] | – |
| CCC(=O)OC1(C)C(=O)C2=COC(c3ccc(OC)cc3)=CC2=C(Br)C1=O (centres undefined) | – | inactive: 1.13% |
| Cc1ccc(S(=O)(=O)NCc2ccccc2)cc1C(=O)NC1CCC(C)CC1 (centres undefined) | inconclusive [inhibitor, single point] | – |
| COC(=O)C1(C)NC(c2ccc(F)cc2)C2C(=O)N(c3ccccc3)C(=O)C21 (centres undefined) | inconclusive [inhibitor, full curve, poor fit] | – |
| COc1ccc(NC(=O)c2ccc(N(C)S(C)(=O)=O)cc2)cc1OC | inconclusive [inhibitor, full curve] | – |
